# Whole data set: some 33,000 sequences, median “E-score (-0.5 to 0.5)” near -0.056, cut for the highest 2% near 0.38. The list shows a part of the results.
# Target: Stb4 (UniProt P50104)
# Test: PBM E-score (8-mer binding enrichment) (E-score (-0.5 to 0.5)); higher = stronger / more preferred TF binding; most listed sequences are background and not binding sites
# Details: protein concentration: 200 nM; construct: GST-DNA-binding domain
# In short: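 Bound GST-tagged yeast transcription factors, applied at about 100-200 nM to double-stranded universal all-10-mer Agilent arrays, were detected with fluorescent anti-GST. Scans were normalised with masliner. A modified Wilcoxon-Mann-Whitney statistic, the E-score, was assigned to each ungapped eight-base word pooled with its reverse complement by the Universal PBM Analysis Suite.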
row,Sequence,PBM E-score
1,CCGTGGAA,0.252
2,CCTGGCAG,-0.289
3,CCCTAACC,-0.0559
4,ACTGCAAA,-0.125
5,TATGCTGA,-0.177
6,AGACTCGG,0.344
7,ACTCCTAC,-0.203
8,GCATAAGC,-0.152
9,CTGCCCAC,-0.202
10,ATACCAAG,-0.121
11,ACCACTCT,-0.177
12,ACGTCGAC,-0.0974
13,CAACATTA,-0.135
14,ATGGCGCC,0.0518
15,AGACGGCA,0.0327
16,CCGATCCG,0.445
17,TATGTCAA,0.0756
18,AATCGCGA,0.0215
19,CCATAAGC,-0.203
20,AAGTCGCA,0.0407
21,ATACCTCG,0.0825
22,CCTATCGC,-0.0745
23,AAGCGGGC,-0.0136
24,GCCACAAC,-0.118
25,CCACAGGC,-0.236

row,Sequence,PBM E-score
1,AGAGCGCC,0.101
2,AGTACCGA,0.362
3,ACGAGCCA,-0.307
4,GATTGACC,0.0279
5,GACTGATC,-0.223
6,AGCCATCG,0.0272
7,AAGCCCGC,-0.0105
8,AGTCTAAT,-0.22
9,GATTGACA,-0.13
10,AGGGTCTG,-0.261
11,AGACATTC,-0.0662
12,CCAAAGAA,-0.142
13,CAGACCAG,-0.113
14,CCTGTGCA,-0.155
15,GGCAAGGA,-0.0044
16,CAGCACTG,-0.286
17,AAGAGAGC,-0.0244
18,CCGGTAAA,0.312
19,ACTCGACC,-0.00455
20,ATAGATAA,-0.0273
21,CACTGTAG,-0.159
22,CCTAACGC,0.0169
23,AGCTGAAT,-0.292
24,CATCAGTA,-0.226
25,CACTGTTA,-0.0754

row,Sequence,PBM E-score
1,CGTTCCTC,0.0883
2,AACCGAGG,0.355
3,ACCGCTGC,-0.0977
4,CATTGTAA,-0.148
5,AACCGCAG,0.0321
6,ACGACTCC,-0.153
7,CATCATGA,-0.119
8,ATAACTTA,-0.256
9,GAGTTGTA,-0.0447
10,CCCCGCCG,0.206
11,CGACTGAG,-0.0628
12,AGTGGAAT,-0.059
13,CATTAACA,-0.125
14,ATATGGTC,-0.17
15,CCACGCAC,0.0161
16,CTCGCTTA,0.0647
17,ATCTGCCA,-0.112
18,AAATTGTT,0.0532
19,ACAGCTGC,-0.219
20,ATGATTGA,-0.224
21,ATAACCTG,-0.134
22,ACCACACA,-0.0514
23,GGAGGGCC,-0.168
24,CTGACCTA,-0.22
25,CACATGCC,0.0149

row,Sequence,PBM E-score
1,CTTGGGGA,-0.211
2,ACTCGCAT,-0.0739
3,CCGTAAGG,-0.0631
4,GTTAGATA,-0.139
5,TGACAACA,-0.116
6,ACTAGGCC,-0.146
7,AGAGGTGG,0.0121
8,AGTAAAGG,0.119
9,CACGCGAG,-0.1
10,GAGCAGAC,-0.161
11,GGTGACGA,-0.194
12,CAGCTCCC,-0.0256
13,GAACCTCC,0.163
14,ATTAAACA,-0.236
15,AATATCTA,-0.0944
16,GGAACCTA,0.243
17,ACTGAATG,0.0782
18,CGCCTACG,0.0238
19,ATGAACGA,-0.136
20,TGACCAAA,-0.0981
21,AATAATCT,0.0237
22,ATTAGGCG,-0.0263
23,ATGACATC,-0.0123
24,CCCTAGGG,-0.137
25,CACCTCAA,-0.156

row,Sequence,PBM E-score
1,CTTGCCAA,-0.151
2,TTCAGGAA,-0.0828
3,AAAGACCA,-0.146
4,AAAGTAAG,-0.14
5,CATCGGGC,0.181
6,TGGATACA,-0.147
7,GGCGGACC,0.186
8,CCCGTTGA,0.0212
9,GCCAGCAA,-0.128
10,CTAAACAC,-0.142
11,ACGACTAA,-0.224
12,CACCTCAG,-0.26
13,CAAGGCCA,-0.182
14,CGTGAGGC,-0.0397
15,AGGGATCG,0.0754
16,CAGATTGC,-0.0992
17,ACCGCCCT,-0.16
18,GGCGGGAA,0.233
19,ACGACTAT,-0.151
20,CTCATCCC,-0.0322
21,CATCGATA,-0.0351
22,CGCCGACG,0.22
23,ACACCCCC,-0.161
24,GGCGCCAC,-0.0805
25,CAGCTTCC,0.122

row,Sequence,PBM E-score
1,GTGGGAAC,-0.102
2,TCCAAGCA,-0.252
3,CACGGTCG,-0.0595
4,CTGTCTAA,-0.151
5,TCTAGGCA,-0.0114
6,GATTCCGC,0.222
7,ATCGTAAC,0.156
8,ACGGTGGG,-0.054
9,CGGTACCG,0.378
10,GGCTTTTA,-0.0732
11,CGCGAGGA,0.0296
12,AAATAAGC,-0.113
13,ACTTGTAA,-0.204
14,AATATGTC,-0.172
15,GCTGGTCC,-0.0162
16,GCCAACTA,-0.262
17,ATTTAGTC,-0.0745
18,CGAAAAGC,0.0706
19,CCCGTGTC,0.245
20,CAGAGGAA,-0.245
21,CCATTCGC,-0.277
22,TGTCGTAA,-0.215
23,CGGTAAGC,0.212
24,AGCTTAAA,-0.183
25,AACCTATG,-0.283

row,Sequence,PBM E-score
1,GTCGCGAC,0.284
2,CCGCAAGC,-0.024
3,CACGTGCA,-0.309
4,CTTAGCAA,-0.144
5,ACTGATTC,-0.0527
6,GAAATTCA,0.0631
7,ACAAAGGC,-0.155
8,AATGTGCG,0.0205
9,AGAACATC,-0.00488
10,CTAACTTC,0.064
11,AGCTTCTG,0.0226
12,GGCACTGA,0.0603
13,AACGTGCC,-0.0293
14,GCTTCAAA,-0.163
15,GGACCTCA,-0.139
16,ATGAGGGC,0.0421
17,GCGCTTAC,0.116
18,AACAACAT,-0.0799
19,CACCCGCA,0.219
20,GACATAAC,0.233
21,CACAGAGC,-0.185
22,AGATTTTG,-0.0142

# — the supplement of paper PMC3334620
